# In all, about 43,000 compounds went through this assay and about 200 (0.47%) were called active. Inconclusive results (about 12%) are left out. Calls follow the shape of the dose curve; as a rule, active = well fitted cell-killing curve with a large enough effect; inconclusive = small, poorly fitted or top-dose-only effect, or effect the other way; inactive = flat fitted curve, though single readings scatter. This is one part of the list.
# Assay: Cell viability qHTS assay in S16 Pmp22-F2sN cells; also: nearly all actives have a fitted effect of over 65% in size
# Conditions: S16 Pmp22-F2sN Schwann cells (luciferase reporters placed in the Pmp22 gene) viability, CellTiter-Glo, 24 h; series mostly up to 57.5 µM; activity change, negative = cytotoxicity: at the top concentration
# Outline: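 CellTiter-Glo counter-screen, qHTS, 1536-well. Cells: S16(c9) Pmp22-F2sN, 500-1,000/well in DMEM + 10% FBS. Cpd 23 nL pin transfer, 24 h, 37C/5% CO2. Read: luminescence, CCD imager.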
# % is scaled to controls: 0 for no effect and ±100 for the full control effect.
row,SMILES,"activity change, negative = cytotoxicity"
1,CCN(CC)CCNC(=O)c1cc2c(=O)oc3ccc(C)cc3c2s1,inactive: 21.6%
2,COc1cc(OC)c(NC(=O)CCNS(=O)(=O)c2ccc3c(c2)oc(=O)n3C)cc1Cl,inactive: 7.68%
3,CC(=O)N1CCCc2cc(S(=O)(=O)N(Cc3ccccc3)C(C)C)ccc21,inactive: -18.2%
4,COc1cccc(C(C(=O)NCc2ccccc2)N(C(=O)Cn2nnc3ccccc32)c2cccc(C(C)=O)c2)c1 (stereo unspecified),inactive: -4.24%
5,Cc1ccc(C)c(CSc2cn(CCNC(=O)c3ccccc3F)c3ccccc23)c1,inactive: -3.21%
6,Cc1cccc(Oc2ccc(NC(=O)CCC(=O)OCC(=O)c3ccc(Br)cc3)cc2)c1C,inactive: 3.8%
7,COc1cc(C2c3c(-c4ccccc4O)n[nH]c3C(=O)N2CCO)ccc1OCC(C)C (stereo unspecified),inactive: -0.277%
8,COc1ccc(Cc2c(C)nn(-c3nc(C)c(C(=O)Nc4ccc(C)cc4C)s3)c2C)cc1,inactive: 1.86%
9,Clc1ccccc1-c1nnc(-c2ccccc2CNc2ccccc2)o1,inactive: -0.67%
10,COc1ccc(NC(=O)C2CCC(CNS(=O)(=O)c3cccs3)CC2)cc1OC (stereo unspecified),inactive: 6.23%
11,Cc1ccc(C)c(N2CCN(S(=O)(=O)c3csc(C(N)=O)c3)CC2)c1,inactive: -14.5%
12,CCn1nnc2cc(C(=O)Nc3cccc(C)c3C)ccc21,inactive: -17.5%
13,Cc1ccccc1CSCCNC(=O)CN(c1ccccc1)S(=O)(=O)N(C)C,inactive: -3.47%
14,CCN1CCc2c(sc(-n3cccc3)c2C(C)NC(=O)Nc2ccccc2C)C1 (stereo unspecified),inactive: -11.4%
15,Cc1cccc(CC(=O)Nc2cccc(-c3nc4cccnc4s3)c2)c1,inactive: 0.554%
16,Cc1cccc(C)c1NC(=O)CN1C(=O)c2ccccc2Sc2ncccc21,inactive: 0.923%
17,COc1ccc(C)cc1NC(=O)CN1CCN(S(=O)(=O)c2ccc(Br)cc2)CC1,inactive: 7.34%
18,COC(=O)c1cc2sc(C)cc2n1CC(=O)Nc1ccc(C)cc1Cl,inactive: 0.573%
19,COc1ccc(-c2noc(CSc3nnc(-c4ccccc4)n3C)n2)cc1,inactive: -0.167%
20,CCCOC(=O)c1ccc(Nc2c(C(=O)OCC)cnc3c(C)cc(Cl)cc23)cc1,inactive: 13.4%
21,CC(C)OCCCNC(=O)c1nn(C)c2c1CSc1ccccc1-2,inactive: 1.8%
22,Cc1ccc(CCNC(=O)c2cc3c(=O)n(C)c4ccccc4c3n2C)cc1,inactive: 1.48%
23,Cc1cccc(N2CCN(c3nc4ccccc4c4nc(-c5cccnc5)nn34)CC2)c1C,inactive: 12.4%
24,CC(C)CCn1c(=O)c2sccc2n2c(CCCC(=O)NC(C)c3ccccc3)nnc12 (stereo unspecified),inactive: 11.4%

row,SMILES,"activity change, negative = cytotoxicity"
1,CC(=O)c1cccc(NC(=O)CSc2nc3c(=O)n(C)c(=O)n(C)c3n2C)c1,inactive: 5.77%
2,Cc1cccc(OCC(=O)Nc2ccccc2C(=O)OCc2cc(=O)n3nc(C4CC4)sc3n2)c1,inactive: 10%
3,CCOC(=O)c1ccc(NC(=O)c2c(NCc3cc(OC)ccc3OC)sc3c2CCC3)cc1,inactive: 6.16%
4,CCc1cnc2c(c1SCCC(C)C)c(=O)n(C)c(=O)n2C,inactive: 2.91%
5,CCn1cc(C(=O)Nc2ccc(C(C)C)cc2)c2cc(OC)c(OC)cc2c1=O,inactive: -7.85%
6,CCc1cccc(N2C(=O)N(Cc3c(F)cccc3Cl)c3ccccc3S2(=O)=O)c1,inactive: 18.1%
7,Cc1ccc2cc3cc(C(=O)N(C)c4ccccc4C)oc3nc2c1,inactive: 3.5%
8,CCCCNC(=O)c1ccc2c(c1)NC(=O)C(CS(=O)(=O)Cc1ccc(F)cc1Cl)N2 (stereo unspecified),inactive: 2.15%
9,CC(=O)Nc1ccc(S(=O)(=O)N(Cc2ccccc2)Cc2ccccc2)cc1,inactive: -10.1%
10,CCOc1ccccc1-c1nc(C(N)=O)c2c(n1)n(-c1ccc3c(c1)OCO3)c(=O)n2C,inactive: 4.41%
11,C=Cc1ccc(Cn2c(=O)n(CC3CCC(C(=O)NC(C)C)CC3)c(=O)c3sccc32)cc1 (stereo unspecified),inactive: -0.549%
12,O=C(NCc1ccco1)c1ccc2c(c1)N(Cc1ccccc1F)C(=O)c1ccccc1S2(=O)=O,inactive: -24.6%
13,CCn1c(=O)cc(SCC(=O)NCc2ccc(C)cc2)c2ccccc21,inactive: 1.97%
14,Nc1ccc2oc(Cc3ccc(Cl)cc3)nc2c1,inactive: -1.5%
15,COc1ccc(C)cc1NC(=O)Cc1c(C(=O)O)c(C)cn1C,inactive: 7.73%
16,COCCNc1ccc(-c2nc(-c3ccccn3)no2)cc1[N+](=O)[O-],inactive: 18.3%
17,CCCC(=O)Nc1ccc2nc(SCc3ccc(C)cc3)sc2c1,inactive: 5.92%
18,O=C(NCc1ccc(Cl)cc1)c1ccc2c(c1)N(Cc1ccccc1F)C(=O)c1ccccc1S2=O (stereo unspecified),inactive: 19.8%
19,CCc1ccc(CNC(=O)c2ccc(CS(=O)(=O)Cc3cccc(C)c3)o2)cc1,inactive: -6.98%
20,CCCCNc1nc2c(c(=O)n(Cc3ccccc3)c(=O)n2C)n1C,inactive: -0.552%
21,Cc1ccc(Cl)cc1N1CCN(C(=O)C2CCCN(Cc3nc(-c4cccc(Cl)c4)oc3C)C2)CC1 (stereo unspecified),inactive: 3.09%
22,COc1ccc(N(C)C(=O)c2cc3c(s2)-c2ccccc2OC3)cc1,inactive: -0.8%
23,O=C(c1ccc(Cl)cc1)c1cn(Cc2ccccc2)c2cc3c(cc2c1=O)OCCO3,inactive: -25.9%
24,Cc1ccc(NC(=O)Cn2c(=O)ccc3cc(S(=O)(=O)N4CCCC4)ccc32)cc1N(C)C,inactive: -9.8%

row,SMILES,"activity change, negative = cytotoxicity"
1,Cc1cc(C(=O)Nc2cccc(C)c2C)c2c(C)nn(-c3cccc(F)c3)c2n1,inactive: -3.24%
2,COc1ccc2c(c1)c1c(c(=O)n(-c3ccc(F)c(Cl)c3)c(=O)n1Cc1cccc(C)c1)n2C,inactive: -1.84%
3,Cc1ccc2c(c1)C(=O)OC(C(=O)Nc1ncc(Cc3ccccc3Cl)s1)C2 (stereo unspecified),inactive: 15.7%
4,Cc1ccc(-c2cc(-c3ccc4c(c3)NC(=O)CO4)nc3c2COc2ccccc2-3)cc1,inactive: 8.25%
5,COc1ccc(CNC(=O)Cn2nc3c(cc2=O)CCCC3)cc1,inactive: 13.8%
6,Cc1cc(C)c2c(CC(=O)Nc3ccc(F)cc3)coc2c1,inactive: -14.8%
7,Cc1ccc(-n2nc(C)c3nc(CCC(=O)Nc4cccc(C)c4C)c(=O)n(C)c32)cc1,inactive: -2.4%
8,CC(=O)Nc1cc(C(=O)NCc2ccccc2Cl)ccc1Sc1ccc(F)cc1,inactive: -0.0809%
9,Cc1ccc(NC(=O)c2cc(S(=O)(=O)N3CCCCC3)c[nH]2)cc1N(C)C,inactive: -1.77%
10,Cc1cc(C)cc(NC(=O)c2cc(S(=O)(=O)NCCC3=CCCCC3)ccc2F)c1,inactive: -15.8%
11,Cc1nnc(NC(=O)CSc2nc3c([nH]c4ccccc43)c(=O)n2-c2ccc(Cl)cc2)s1,inactive: 3.55%
12,Cc1ccc2[nH]c(=O)c3cc(C(=O)N(C)c4ccc(Br)cc4)sc3c2c1,inactive: 16%
13,CCc1ccc(NC(=O)C2CCN(c3nc(-c4ccc(OC)cc4)no3)CC2)cc1,inactive: 0.734%
14,COc1ccc2c(c1)CC(C(=O)NCc1ccc(F)cc1)CO2 (stereo unspecified),inactive: -4.12%
15,Cc1cc(OCC(=O)Nc2ccc(C(=O)OC3CCCCC3)cc2)cc(C)c1Cl,inactive: 7.21%
16,COc1ccc(CCNCc2c(C(=O)O)c(C)n(Cc3c(F)cccc3Cl)c2C)cc1OC,inactive: 2.62%
17,Cc1cccc(C(=O)Nc2ccc3oc(-c4cccc5c(Br)cccc45)nc3c2)c1,inactive: 9.33%
18,O=c1c2cccnc2n(Cc2ccccc2F)c(=O)n1Cc1ccc(F)cc1,inactive: 9.69%
19,CCCCN1C(=O)c2[nH]nc(-c3ccccc3O)c2C1c1cc(Br)c(O)c(OC)c1 (stereo unspecified),inactive: -15.7%
20,COc1cccc(CNC(=O)C(NS(=O)(=O)c2cccs2)C(C)C)c1 (stereo unspecified),inactive: 3.1%
21,COc1cccc(CNC(=O)c2ccc3nc(N4CCCCC4)sc3c2)c1OC,inactive: 3.49%
22,Cc1ccc(CN2CCSc3ccc(C(=O)N4CCN(c5ccc(Cl)cc5)CC4)cc32)cc1,inactive: -25.7%
23,COc1ccccc1NC(=O)c1cc(S(=O)(=O)NCCc2ccccc2)ccc1F,inactive: -8.48%
24,O=S(=O)(Nc1ccc2nc(-c3ccc(F)cc3)oc2c1)c1ccccc1,inactive: -0.619%

row,SMILES,"activity change, negative = cytotoxicity"
1,CCOCCCNC(=O)C(c1ccc(OC)cc1)N(Cc1ccc2c(c1)OCO2)C(=O)c1ccc(NC(C)=O)cc1 (stereo unspecified),inactive: -16.3%
2,CCCCc1nn2c(=O)cc(COC(=O)c3ccc(NC(=O)c4ccccc4Cl)cc3)nc2s1,inactive: 19.5%
3,COc1ccc(NC(=O)Cn2c3ncccc3c(=O)n2-c2ccc(C)c(C)c2)c(OC)c1,inactive: -5.58%
4,O=C(NC1(C(F)(F)F)C(=O)Nc2c1c(=O)[nH]c(=O)n2-c1ccc(F)cc1)c1ccccc1 (stereo unspecified),inactive: 4.46%
5,COc1ccc(C2C(=O)N(C3CCCCC3)CC(=O)N2CCC2=CCCCC2)cc1 (stereo unspecified),inactive: -10.8%
6,CCOc1ccc(-n2c(=O)c3sc4ccccc4c3n(Cc3cccc(C)c3)c2=O)cc1,inactive: -1.97%
7,Cc1ccc(OC(=O)c2cc(-c3ccc(Cl)cc3)on2)c(C)c1,inactive: -0.641%
8,Cc1cccc(N2CCN(C(=O)CCc3c(C)nc4c(c3C)c(=O)n(C)c(=O)n4C)CC2)c1C,inactive: 13.8%
9,COc1ccc(-n2cc(C(=O)OCc3ccc(F)c(F)c3)c3ccccc3c2=O)cc1,inactive: 3.29%
10,CCc1ccc(NS(=O)(=O)c2ccc3[nH]cc(C(=O)NCCc4cccc(C)c4)c(=O)c3c2)cc1,inactive: -0.894%
11,O=C(NCc1ccccc1)C(=O)NCC(c1ccc2c(c1)OCO2)N1CCOCC1 (stereo unspecified),inactive: 25.4%
12,CCN1CCN(c2oc(/C=C/c3ccc(OC)c(OC)c3)nc2C#N)CC1,inactive: -0.466%
13,COc1ccc2c(c1)sc1ncc(C(=O)NCc3ccc(Cl)cc3)c(=O)n12,inactive: -1.16%
14,Clc1ccc(-c2cn3ncsc3n2)cc1,inactive: 0.0804%
15,CCOc1ccc(CCNC(=O)Cn2ncn3c(cc4sc(C)cc43)c2=O)cc1OCC,inactive: 1.65%
16,O=C(NCCS(=O)(=O)N1CCN(c2ccccc2F)CC1)C(c1ccccc1)c1ccccc1,inactive: 6.23%
17,O=C(Nc1ccccc1Cl)c1cc(S(=O)(=O)N2CCC3(CC2)OCCO3)ccc1F,inactive: -17.7%
18,Cc1ccc(NC(=O)CCNS(=O)(=O)c2ccc(Br)s2)cc1,inactive: -0.572%
19,CCOC(=O)C1CCCN(C(=O)c2cccc(NC(=O)c3nsc4ccccc34)c2)C1 (stereo unspecified),inactive: -12.4%
20,Cc1ccc(-c2nc(NC(=O)CSc3ncnc4sc5c(c34)CCC(C)C5)ns2)cc1 (stereo unspecified),inactive: 12.9%
21,CCOc1ccc(N(CC)S(=O)(=O)N2CCCC(C(=O)Nc3ccc(OC)c(OC)c3)C2)cc1 (stereo unspecified),inactive: 1.34%
22,CCCCN(Cc1ccccc1)S(=O)(=O)c1cc(Br)cc2c1N(C(=O)C1CC1)CC2,inactive: 0.34%
23,CCOc1ccc(-n2ccn3c(CC(C)CC(=O)O)nnc3c2=O)cc1 (stereo unspecified),inactive: 4.02%
24,COc1ccc2c(c1)c1c(c(=O)n(-c3ccc(C)cc3)c(=O)n1CC(=O)N1CCCC1)n2C,inactive: 0.0153%

# From PubChem BioAssay AID1508642 (National Center for Advancing Translational Sciences (NCATS), 2021)
